# Laboratory results reported in publication PMC4336329 (PLoS ONE, 2015).
# Out of some 310,000 compounds screened, about 14,000 (4.5%) showed an effect of 50% or more. Effects have a minus sign here. Some of the results follow.
# Biological target: human ether-à-go-go-related gene (hERG) potassium channel (human, UniProt Q12809)
# Assay: primary screen, population patch clamp on CHO cells stably expressing hERG
# 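Further: peak tail current of the secondary pulse compared with the same well before compound.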
# Chain of human ether-à-go-go-related gene (hERG) potassium channel (Q12809 whole entry, looked up): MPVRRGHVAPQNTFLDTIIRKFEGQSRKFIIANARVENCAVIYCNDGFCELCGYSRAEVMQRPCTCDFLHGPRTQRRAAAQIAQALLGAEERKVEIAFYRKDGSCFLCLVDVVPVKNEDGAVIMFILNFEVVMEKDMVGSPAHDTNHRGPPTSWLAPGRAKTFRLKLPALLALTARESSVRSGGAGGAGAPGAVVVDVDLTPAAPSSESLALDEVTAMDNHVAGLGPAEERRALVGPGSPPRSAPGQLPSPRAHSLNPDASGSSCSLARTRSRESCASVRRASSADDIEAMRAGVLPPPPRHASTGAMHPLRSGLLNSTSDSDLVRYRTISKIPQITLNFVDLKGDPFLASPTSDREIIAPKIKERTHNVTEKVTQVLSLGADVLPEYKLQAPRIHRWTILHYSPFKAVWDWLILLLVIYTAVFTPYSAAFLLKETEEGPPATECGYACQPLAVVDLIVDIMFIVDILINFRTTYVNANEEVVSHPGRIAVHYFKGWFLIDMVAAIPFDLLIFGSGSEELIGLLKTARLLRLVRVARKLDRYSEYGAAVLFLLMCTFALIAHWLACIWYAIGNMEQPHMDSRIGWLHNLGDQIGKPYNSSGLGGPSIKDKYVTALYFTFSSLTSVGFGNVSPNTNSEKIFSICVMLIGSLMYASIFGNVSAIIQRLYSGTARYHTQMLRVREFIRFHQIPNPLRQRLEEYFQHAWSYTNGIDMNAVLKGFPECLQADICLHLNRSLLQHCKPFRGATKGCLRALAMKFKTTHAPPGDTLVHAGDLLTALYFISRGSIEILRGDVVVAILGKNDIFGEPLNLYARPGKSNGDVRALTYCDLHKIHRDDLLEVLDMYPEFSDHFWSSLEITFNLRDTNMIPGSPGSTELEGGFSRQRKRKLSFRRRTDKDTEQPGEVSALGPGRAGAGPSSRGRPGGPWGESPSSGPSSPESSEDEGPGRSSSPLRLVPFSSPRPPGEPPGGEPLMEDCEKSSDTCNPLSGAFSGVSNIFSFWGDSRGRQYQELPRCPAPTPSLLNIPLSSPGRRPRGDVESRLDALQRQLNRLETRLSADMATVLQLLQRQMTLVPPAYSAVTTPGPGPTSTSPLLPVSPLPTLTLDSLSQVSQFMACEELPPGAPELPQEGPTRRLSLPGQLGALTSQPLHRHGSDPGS
row,Structure (SMILES),"hERG current change (%, negative = inhibition) at 10uM [%]"
1,CCN(C(=O)c1c(OC)cccc1OC)c1nnc(-c2cccnc2)s1,-4
2,CCOC(=O)c1c(NC(=O)COc2cccc3c2CCN(Cc2ccc(F)cc2)C3=O)sc2c1CCC2,8.25
3,CCN(Cc1ccncc1)C(=O)CC1C(=O)NCCN1Cc1ccc(F)c(F)c1 (stereo not shown),-3.02
4,Cc1ncc(S(=O)(=O)C(C)(C)C)c(N)n1,2.37
5,CC(=O)c1ccc(N2CCN(C(=O)Cc3n[nH]c(=O)c4ccccc34)CC2)cc1,-7
6,CCCCCCCc1nn2c(=O)cc(O)nc2s1,-7.31
7,O=C(NNc1ccc([N+](=O)[O-])cc1[N+](=O)[O-])C1C2CCCCC21 (stereo not shown),-21
8,COc1ccc2c(C(=O)c3ccc(C)cc3)n(Cc3ccc(C(N)=O)cc3)[n+]([O-])c2c1,-12.5
9,COc1ccc(N2CCN(C(=O)c3cc4c(s3)-c3ccccc3S(=O)(=O)C4)CC2)cc1,-8.01
10,O=C(NCc1csc(-c2cccs2)n1)C1CCC1,1.46
11,COC(=O)CSc1nnc(CNS(=O)(=O)c2ccc(Cl)cc2)n1C,9.68
12,Cl.OC1(c2cccc(C(F)(F)F)c2)CCNCC1,8.53
13,Cl.NCCc1ccc(O)c(O)c1,17.8
14,Cc1oc(C(C)(C)C)cc1C(=O)Nc1cccc(/C=C\C(=O)O)c1,10.3
15,COc1ccc(C2c3[nH]c4ccccc4c3C[C@H]3C(=O)N(c4ccccc4C(=O)N4CCC[C@H]4C(=O)O)C(=O)N23)cc1 (stereo partly shown),3.11
16,O=C(Nc1cccc(S(=O)(=O)C(F)F)c1)c1ccc(Cl)c(S(=O)(=O)N2CCOCC2)c1,-2.49
17,CCOc1ccccc1N1CCN(CC(=O)Nc2ccnn2C2CCCC2)CC1,-19.2
18,COc1cccc(CNc2ncnc3cc(OC)c(OC)cc23)c1,-11.6
19,CCOC(=O)C1CCCN(C(=O)C2CCN(S(=O)(=O)c3c(C)noc3/C=C/c3ccccc3F)CC2)C1 (stereo not shown),20.5
20,O=C(O)CSc1nnnn1C1CCCCC1,11.1
21,COC(=O)c1cn[nH]c1NC(=S)Nc1ccccc1C,-6.08
22,CC1=CC(C)(C)Nc2ccc(OC(=O)C(Cc3ccccc3)N3C(=O)c4ccccc4C3=O)cc21 (stereo not shown),10.3
23,CCCCC(=O)Nc1cc(OCC)c(NC(=O)c2ccccc2[N+](=O)[O-])cc1OCC,-4.27
24,CCc1sc(C(=O)N2CCc3ccccc32)cc1C,-0.57
25,COc1ccc(CCNC(=O)CN(CCc2ccccc2)S(C)(=O)=O)cc1,12.1
26,CCSc1ccccc1C(=O)NCc1cccnc1,3.93
27,N#Cc1ccc(CN2CCN(C(=O)c3cc(Cl)c4c(c3)OCCO4)CC2)cc1,-67.7
28,Cc1ccc2ncnc(Nc3ccccc3)c2c1,2.81

row,Structure (SMILES),"hERG current change (%, negative = inhibition) at 10uM [%]"
1,O=[N+]([O-])c1nn(-c2ccccc2)n(O)c1=NC1CCN(Cc2ccccc2)CC1,-58.1
2,O=C(NC1CC2CCC(C1)N2Cc1ccccc1)c1ccccc1Cl (stereo not shown),-40.6
3,COc1cc(NC(=O)C2CCCCC2)c(OC)cc1NC(=O)c1ccco1,-3.74
4,CC(=O)N1CCN(c2ccc(NCc3ccc4c(c3)OCO4)cc2)CC1,3.35
5,Cc1ccc(C2C(C(=O)c3cccs3)=C(O)C(=O)N2c2cccc(C)n2)cc1 (stereo not shown),2.55
6,COCCNC(=O)C(C)OC(=O)c1cc2sccc2n1C (stereo not shown),4.91
7,CC1CN(S(=O)(=O)c2ccc(F)cc2)C(C)N1C(=O)N1CCOCC1 (stereo not shown),15.6
8,CC1CN(C(=O)c2ccccc2NS(=O)(=O)c2cccc([N+](=O)[O-])c2)CC(C)O1 (stereo not shown),22.7
9,Nc1cccc2c1C(=O)N(C(=O)c1ccco1)C2=O,-0.182
10,O=C(CSc1ccccc1)Nc1cc(Cl)ccc1Oc1ccccc1,-9.05
11,CCOC(=O)C1=C(CC)OC(N)=C(C#N)C1c1ccc(NC(C)=O)cc1 (stereo not shown),-3.95
12,CCN=C1S/C(=C/c2ccc(-c3ccc(F)cc3)o2)C(=O)N1CC,26.3
13,CCOC(=O)c1sc(NC(=O)C2CCCCC2)nc1C,5.94
14,O=C(NN1C(=O)C2C3C=CC(O3)C2C1=O)c1cccc(O)c1 (stereo not shown),-7.19
15,O=C1NCCNC1(c1c[nH]c2ccccc12)C(F)(F)F (stereo not shown),8.97
16,Cc1ccc(NC(=O)CNC(=O)c2sc3ccccc3c2Cl)nc1,8.63
17,COc1ccc(NC(=O)CN2CCN(CC(=O)Nc3ccccc3Cl)CC2)cc1,-74.1
18,COc1ccc(C2/C(=C(/O)c3ccccc3)C(=O)C(=O)N2C)c(OC)c1 (stereo not shown),23.2
19,CCc1cc(CNC(=O)c2ccc(OC3CCN(CCc4ccccc4)CC3)cc2)on1,-75.5
20,CCOC(=O)c1c(CN2CCOCC2)oc2ccc(OC)cc12,-7.29
21,COCC1CCN(C(=O)c2cc(COc3ccc(-n4cncn4)cc3)on2)CC1,-26.5
22,Cc1ccc2nc3nc(NCC4CCCO4)c(C(=O)NC4CCCC4)cc3c(=O)n2c1 (stereo not shown),-75.6
23,Nn1c(Cc2ccccc2)nc2sc3c(c2c1=O)CCC3,-11.2
24,CCOC(=O)c1c(-c2ccccc2)csc1NC(=O)C(C)NCCCN1CCOCC1.O=C(O)C(=O)O (stereo not shown),-12.5
25,CC(C)c1ccc(Nc2nnc(SC3CCOC3=O)s2)cc1 (stereo not shown),-0.398
26,CC(C)c1ccc(/C=C2\SC(=S)N(CC(=O)NCCCN3CCOCC3)C2=O)cc1,12
27,O=C(c1ccc(F)c(S(=O)(=O)N2CCOCC2)c1)N1CCN(c2ccc(F)cc2)CC1,-60.5
